Consider 26 compounds from the antibiotic and cytotoxicity screens of Wong et al. (2023).

SMILES strings stand for the structures. Some of the results follow.

One assay deals with HSkMC. Nature of the assay: cytotoxicity call (relative viability < 0.9). The note with it: 10 µM.
The subject of the next assay is HepG2. Nature of the assay: cytotoxicity call (relative viability < 0.9). The note with it: 10 µM.
The subject of a further assay is S. aureus RN4220. The experiment in a line: growth inhibition call (relative growth <= 0.2). The note with it: 50 µM.

As for `C[C@@H]1CCCCO[C@@H](CN(C)Cc2ccc(C(F)(F)F)cc2)[C@H](C)CN([C@H](C)CO)C(=O)c2cc(NC(=O)Nc3cccc4ccccc34)ccc2O1`, the cytotoxicity call in the assay on HSkMC and in the assay with HepG2 was “inactive” in each case. Besides, in the assay on S. aureus RN4220, the growth inhibition call was “inactive”.

For `C=CC1=C(C(=O)O)N2C(=O)[C@@H](NC(=O)/C(=N\O)c3csc(N)n3)[C@H]2SC1`, the cytotoxicity call in the assay with HSkMC and in the assay with HepG2 was “inactive” throughout. Further, the growth inhibition call with S. aureus RN4220 was “active”.

Regarding `COc1ccc(S(=O)(=O)Nc2cccc3c2O[C@@H](CN(C)CC2CC2)[C@@H](C)CN([C@@H](C)CO)C3=O)cc1`, the cytotoxicity call in the assay on HSkMC and in the assay with HepG2 was “inactive” throughout. Besides, the growth inhibition call with S. aureus RN4220 is “inactive”.

On to `CCCC#Cc1ccc2c(c1)O[C@H](CN(C)Cc1ccc3c(c1)OCO3)[C@H](C)CN([C@H](C)CO)S2(=O)=O`, for which the cytotoxicity call in the assay with HSkMC and in the assay on HepG2 was “inactive” each time. The growth inhibition call with S. aureus RN4220 was “inactive”.

For `CO[C@H]1CN(C)C(=O)c2ccc(NC(=O)Nc3ccc(Cl)cc3)cc2OC[C@H](C)N(C(=O)Nc2c(C)noc2C)C[C@@H]1C`, the cytotoxicity call in the assay on HSkMC and in the assay on HepG2 was “inactive” in each case. In addition, the growth inhibition call in the assay with S. aureus RN4220 is “inactive”.

As for `Nc1cccc2c1CN(C1CCC(=O)NC1=O)C2=O` (stereo not drawn), the cytotoxicity call with HSkMC and with HepG2 was “inactive” in each case. Besides, in the assay on S. aureus RN4220, the growth inhibition call was “inactive”.

`Cc1noc(C)c1NC(=O)Nc1ccc2c(c1)C(=O)N([C@@H](C)CO)C[C@H](C)[C@@H](CN(C)Cc1ccc(-c3ccccc3)cc1)O2`: the cytotoxicity call in the assay with HSkMC and in the assay on HepG2 was “inactive” each time. The growth inhibition call in the assay on S. aureus RN4220 was “inactive”.

Consider `O=C(Cc1ccc(-c2ccccc2)cc1)N[C@@H]1CCOC1.O=C(Cc1ccc(-c2ccccc2)cc1)N[C@H]1CCOC1`, for which the cytotoxicity call with HSkMC and in the assay on HepG2 was “inactive” in each case. The growth inhibition call in the assay on S. aureus RN4220 was “inactive”.

As to `Cc1ccc(S(=O)(=O)Nc2ccc3c(c2)CC(=O)N([C@H](C)CO)C[C@@H](C)[C@H](CN(C)C(=O)Nc2cccc4ccccc24)O3)cc1`, the cytotoxicity call in the assay on HSkMC and in the assay on HepG2 was “inactive” each time. Also, in the assay on S. aureus RN4220, the growth inhibition call was “inactive”.

Take `C[C@@H]1CN([C@H](C)CO)C(=O)Cc2cc(NC(=O)Cn3cnnn3)ccc2O[C@@H]1CN(C)CC1CCCCC1`: the cytotoxicity call in the assay on HSkMC and in the assay with HepG2 was “inactive” in each case. The growth inhibition call with S. aureus RN4220 was “inactive”.

Consider `CO[C@@H](C(=O)N(C)C[C@H]1OCc2ccccc2-c2c(n(C)c3ccccc23)C(=O)N([C@H](C)CO)C[C@H]1C)c1ccccc1`, for which the cytotoxicity call with HSkMC and in the assay with HepG2 was “inactive” throughout. Also, in the assay with S. aureus RN4220, the growth inhibition call is “inactive”.

As to `O=C(C[C@H]1CC[C@H]2[C@@H](COC[C@H](O)CN2C(=O)Nc2ccc(F)cc2)O1)NCCCN1CCOCC1`, the cytotoxicity call in the assay on HSkMC and in the assay on HepG2 was “inactive” in each case. For the same compound, the growth inhibition call in the assay on S. aureus RN4220 is “inactive”.

For `Cc1noc(C)c1NC(=O)N(C)C[C@H]1Oc2ccc(NS(=O)(=O)c3ccccc3)cc2C(=O)N([C@@H](C)CO)C[C@H]1C`, the cytotoxicity call in the assay on HSkMC and in the assay with HepG2 was “inactive” each time. Besides, the growth inhibition call in the assay with S. aureus RN4220 was “inactive”.

As for `CC(C)NC(=O)N(C)C[C@H]1Oc2ccc(NS(=O)(=O)c3ccc(F)cc3)cc2C(=O)N([C@H](C)CO)C[C@@H]1C`, the cytotoxicity call in the assay with HSkMC and in the assay with HepG2 was “inactive” in each case. Further, the growth inhibition call in the assay on S. aureus RN4220 is “inactive”.

`COCCNC(=O)C[C@H]1CC[C@@H]2[C@H](COC[C@@H](O)CN2S(=O)(=O)c2ccccc2C)O1`: the cytotoxicity call with HSkMC and in the assay with HepG2 was “inactive” in each case. Moreover, in the assay on S. aureus RN4220, the growth inhibition call is “inactive”.

On to `COc1ccccc1C#Cc1ccc2c(c1)O[C@H](CN(C)Cc1cncnc1)[C@H](C)CN([C@H](C)CO)S2(=O)=O`, for which the cytotoxicity call in the assay on HSkMC and with HepG2 was “inactive” in each case. For the same compound, the growth inhibition call in the assay with S. aureus RN4220 is “inactive”.

Take `CC[C@@H](C)[C@@H](NC)C(=O)O`: the cytotoxicity call in the assay on HSkMC and with HepG2 was “inactive” each time. In the assay with S. aureus RN4220, the growth inhibition call was “inactive”.

In the case of `O=C(C[C@@H]1CC[C@@H]2[C@H](COC[C@@H](O)CN2C(=O)Nc2cccc(Cl)c2)O1)NCc1ccccc1F`, the cytotoxicity call with HSkMC and in the assay on HepG2 was “inactive” throughout. Further, the growth inhibition call with S. aureus RN4220 was “active”.

Consider `COc1ccc(S(=O)(=O)Nc2ccc3c(c2)C(=O)N([C@@H](C)CO)C[C@@H](C)[C@@H](CN(C)C(=O)c2ccccc2)OCCCC[C@@H](C)O3)cc1`, for which the cytotoxicity call in the assay with HSkMC and in the assay with HepG2 was “inactive” in each case. Further, the growth inhibition call in the assay with S. aureus RN4220 was “inactive”.

Regarding `CCOC(=O)N1CCC(O)CC1`, the cytotoxicity call in the assay on HSkMC and in the assay on HepG2 was “inactive” in each case. In addition, the growth inhibition call with S. aureus RN4220 was “inactive”.

Consider `Cn1cnc(S(=O)(=O)N[C@@H]2CC[C@@H](CC(=O)NCC3CC3)O[C@H]2CO)c1`, for which the cytotoxicity call in the assay on HSkMC and with HepG2 was “inactive” throughout. Moreover, the growth inhibition call in the assay on S. aureus RN4220 was “inactive”.

`CSc1n[nH]c(=O)c2cc(C)nn12`: the cytotoxicity call with HSkMC and in the assay on HepG2 was “inactive” throughout. The growth inhibition call in the assay on S. aureus RN4220 is “inactive”.

For `C[C@H](CO)N1C[C@H](C)[C@H](CN(C)C(=O)Nc2ccc(C(F)(F)F)cc2)OCc2cn(nn2)CCCC1=O`, the cytotoxicity call in the assay on HSkMC and with HepG2 was “inactive” in each case. In the assay on S. aureus RN4220, the growth inhibition call was “inactive”.

Take `C[C@H]1CCCCO[C@H](CN(C)C(=O)Nc2cccc3ccccc23)[C@@H](C)CN([C@@H](C)CO)C(=O)c2cc(NS(=O)(=O)c3cn(C)cn3)ccc2O1`: the cytotoxicity call in the assay with HSkMC and with HepG2 was “inactive” throughout. Further, the growth inhibition call with S. aureus RN4220 is “inactive”.

`COc1ccc(NC(=O)N(C)C[C@H]2Oc3ccc(NS(=O)(=O)c4c(C)noc4C)cc3CC(=O)N([C@@H](C)CO)C[C@@H]2C)cc1`: the cytotoxicity call in the assay on HSkMC and in the assay on HepG2 was “inactive” each time. The growth inhibition call in the assay with S. aureus RN4220 was “inactive”.

As to `C[C@H](CO)N1C[C@H](C)[C@H](CN(C)C(=O)NC2CCCCC2)Oc2ccc(NS(C)(=O)=O)cc2C1=O`, the cytotoxicity call in the assay on HSkMC (human skeletal muscle cells) and in the assay with HepG2 was “inactive” in each case. In addition, in the assay on S. aureus RN4220, the growth inhibition call was “inactive”.
